# Experimental data from publication PMC4336329 (PLoS ONE, 2015).
# Screen size: about 310,000 compounds; about 14,000 (4.5%) showed an effect of 50% or more. The effect is printed as a negative number. The list shows a part of the results.
# Molecular target: human ether-à-go-go-related gene (hERG) potassium channel (human, UniProt Q12809)
# Assay: primary screen, population patch clamp on CHO cells stably expressing hERG
# 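Note: peak tail current of the secondary pulse compared with the same well before compound.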
# human ether-à-go-go-related gene (hERG) potassium channel, sequence (Q12809 whole entry, looked up): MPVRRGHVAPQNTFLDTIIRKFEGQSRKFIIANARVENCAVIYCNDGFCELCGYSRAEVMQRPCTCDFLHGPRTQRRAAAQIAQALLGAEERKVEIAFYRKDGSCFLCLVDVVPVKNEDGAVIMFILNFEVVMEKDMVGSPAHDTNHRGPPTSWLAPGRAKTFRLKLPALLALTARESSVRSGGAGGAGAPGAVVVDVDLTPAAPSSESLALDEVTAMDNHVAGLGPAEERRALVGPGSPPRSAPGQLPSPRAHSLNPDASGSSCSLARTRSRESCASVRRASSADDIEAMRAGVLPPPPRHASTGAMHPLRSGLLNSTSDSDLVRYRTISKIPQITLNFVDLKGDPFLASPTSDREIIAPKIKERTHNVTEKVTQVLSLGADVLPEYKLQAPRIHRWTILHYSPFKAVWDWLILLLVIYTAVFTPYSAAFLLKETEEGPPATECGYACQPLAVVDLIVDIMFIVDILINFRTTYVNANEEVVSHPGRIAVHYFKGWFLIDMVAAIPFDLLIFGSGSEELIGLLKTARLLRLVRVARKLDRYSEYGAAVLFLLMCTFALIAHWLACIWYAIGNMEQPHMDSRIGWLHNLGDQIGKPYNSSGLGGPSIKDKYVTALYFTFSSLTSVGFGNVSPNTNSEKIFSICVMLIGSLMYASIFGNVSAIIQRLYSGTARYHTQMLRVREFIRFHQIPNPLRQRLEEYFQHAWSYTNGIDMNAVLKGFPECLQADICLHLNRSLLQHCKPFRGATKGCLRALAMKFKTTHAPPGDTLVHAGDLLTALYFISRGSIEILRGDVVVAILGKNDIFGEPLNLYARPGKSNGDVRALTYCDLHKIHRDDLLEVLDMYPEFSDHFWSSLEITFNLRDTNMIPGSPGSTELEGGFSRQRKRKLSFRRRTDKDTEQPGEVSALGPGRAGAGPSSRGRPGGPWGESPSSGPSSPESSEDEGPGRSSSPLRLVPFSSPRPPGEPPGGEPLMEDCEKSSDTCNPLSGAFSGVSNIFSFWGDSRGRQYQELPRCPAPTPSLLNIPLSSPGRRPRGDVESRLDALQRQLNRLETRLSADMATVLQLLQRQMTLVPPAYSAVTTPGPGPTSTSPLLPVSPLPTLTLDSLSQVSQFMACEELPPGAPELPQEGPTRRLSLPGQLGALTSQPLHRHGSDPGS
row,SMILES,"hERG current change (%, negative = inhibition) at 10uM [%]"
1,CC(C)(C)OC(=O)N1CCN(C(=O)c2[nH]cnc2C(=O)Nc2ccon2)CC1,9.6
2,CC(C)CCNC(=O)C12CN(Cc3ccccc3)CC1C(c1ccc([N+](=O)[O-])cc1)=NO2 (stereo not drawn),-53.1
3,COCCn1c(SCC(=O)N2CC(=O)Nc3ccccc32)nc2ccccc2c1=O,-26.9
4,Oc1ccc(/C=C/c2cc(O)cc(O)c2)cc1,-1.26
5,CCn1ccnc1CN1CCCC(C(=O)c2ccc3c4c(cccc24)CC3)C1 (stereo not drawn),-77.4
6,Clc1ccccc1Cc1noc(CN2CCCCC2CCc2ccccn2)n1 (stereo not drawn),-29.4
7,COc1ccc(-c2ccc(=O)n(CC(=O)Nc3ccc4c(c3)OCCO4)n2)cc1,18.8
8,O=C(COc1ccccc1F)NNC(=O)Cn1c(=O)cnc2ccccc21,15.3
9,Cc1ccccc1-n1nnnc1SCC(=O)NCC1CCCO1 (stereo not drawn),14.7
10,CN(C(=O)COC(=O)c1c[nH]c(=O)[nH]c1=O)C1CCCCC1,-3.35
11,c1cncc(C2CC(c3cccs3)n3ncnc3N2)c1 (stereo not drawn),-6.38
12,CC(C)OCCCN1CN(S(=O)(=O)c2ccc(Cl)cc2)c2nc3ccccc3nc21,16.6
13,Cc1cccc(NC(=O)c2ccccc2NC(=O)c2ccco2)c1,1.79
14,CN(C)c1cccc2c1c(NC(=O)Nc1ccc(F)cc1F)nn2C,5.57
15,NCCCC[C@@H](C(=O)N1CCNCC1)n1cc([C@@H](N)CC(N)=O)nn1,6.16
16,CC1CCN(C(c2nnnn2CCc2ccccc2)C(C)C)CC1 (stereo not drawn),-9.03
17,O=C(CN1C(=O)CCS(=O)(=O)c2ccccc21)Nc1ccccc1F,3.96
18,CC(C)(C)C(=O)Nc1cccc(-c2nnc(-c3cccc(NC(=O)C(C)(C)C)c3)o2)c1,-5.21
19,COc1cc(CN2CCN(c3ccccc3F)CC2)c([N+](=O)[O-])cc1OC,-27.4
20,Cn1cnnc1Sc1ccc(/C=C(\CCC(=O)O)c2nc3ccccc3s2)cc1[N+](=O)[O-],-3.23
21,Cc1ccccc1S(=O)(=O)c1c(C)cc(-c2ccccc2)[nH]c1=O,0.781
22,CCN(CC)c1ccc(/C=N/NC(=O)c2cccc(S(=O)(=O)N3CCOCC3)c2)cc1,-24.4
23,COc1ccccc1NC(=O)NS(=O)(=O)c1ccc(C)cc1,21.1
24,O=c1c2c(-c3cccs3)csc2ncn1-c1ccc(Br)cc1,-11.4
25,Cc1ccc(NC(=O)CSc2nccn2C)cc1S(=O)(=O)N1CCOCC1,-7.19
26,CN1CCC(=NNC(=O)c2cc(-c3ccc(Cl)cc3)n[nH]2)CC1,-16.4
27,CC1(OC(=O)CCc2ccccc2)C(=O)C=C2C=C(c3ccc(C#N)cc3)N(CCc3c[nH]c4ccccc34)C=C2C1=O (stereo not drawn),-7.98

row,SMILES,"hERG current change (%, negative = inhibition) at 10uM [%]"
1,CCOC(=O)c1cc(NC(=O)c2cccs2)ccc1N1CCOCC1,-7.18
2,COc1ccc(C(=O)NN2C(=O)C3CCC(C)(C2=O)C3(C)C)cc1 (stereo not drawn),1.82
3,COc1cc(NC(=O)Nc2cc(C)on2)cc(OC)c1OC,19.6
4,S=C(Nc1ccccc1)N1CCOCC1,11.5
5,CC1=CC(C)(C)Nc2ccc(OS(=O)(=O)c3ccc(C)cc3)cc21,-1.89
6,CN1C(=O)C(=O)/C(=C(/O)c2ccc(Br)cc2)C1c1ccc(Cl)cc1 (stereo not drawn),16.5
7,COc1ccccc1NC(=O)c1nn(-c2ccc(F)c(F)c2)ccc1=O,-2.51
8,C/C(=N\NC(=O)c1ccc(OC2OCCOC2Oc2ccc(C(=O)N/N=C(\C)c3ccncc3)cc2)cc1)c1ccncc1 (stereo not drawn),-1
9,CC(C)CCNC(=O)NC(=O)COC(=O)/C=C/c1cnc2ccccc2n1,0.949
10,COc1ccccc1N(C(=O)c1ccco1)C(C(=O)NC1CCCC1)c1cccnc1 (stereo not drawn),-0.441
11,CC(=O)Nc1ccc2c(c1)CC1(C(=O)N(C)C(=O)N(C)C1=O)C1CCCN21 (stereo not drawn),12.3
12,COc1ccccc1C(=O)Nc1ccc2c(c1)OCCO2,15.8
13,O=C(/C=C/c1cccc([N+](=O)[O-])c1)Nn1c(-c2ccccc2F)nc2ccccc2c1=O,-23.1
14,O=C(O)c1cc(=O)c2cc(Cl)ccc2o1,17.3
15,Cc1ccccc1-c1nc2ccccc2o1,8.78
16,CNC(=S)NNc1nc(-c2ccccc2)c2cc(Cl)ccc2n1,2.33
17,CCOC(=O)C1=C(C)N(C)C(C)=C(C(=O)OCC)C1c1ccc(C(=O)OC)cc1,4.71
18,Cc1ccc(C)c(NS(=O)(=O)c2ccc3[nH]c(=O)oc3c2)c1,1.28
19,O=C(CSc1ncnc2scc(-c3ccccc3)c12)N1CCN(c2ccccc2F)CC1,17.4
20,CCOC(=O)C1CCCN(C(=O)CCCn2nnnc2CN2CCC(C)CC2)C1 (stereo not drawn),-8.13
21,O=C(NCCCCNC(=O)c1c(F)c(F)c(F)c(F)c1F)c1c(F)c(F)c(F)c(F)c1F,6.49
22,COc1cc(OC)cc(C(=O)Nc2ccc(S(=O)(=O)N(C)C)cc2)c1,0.297
23,CCC(C)(C)n1nnnc1C(c1ccc2ncccc2c1)N1CCCCCC1 (stereo not drawn),6.75
24,CC(C(=O)Nc1ccccc1)N(c1cccc(Cl)c1)S(C)(=O)=O (stereo not drawn),0.61
25,O=C1OC(c2ccc(F)cc2)=N/C1=C\c1ccc(Br)o1,12
26,Cc1ccnc(NC(=O)CCC(=O)N(CC(=O)NCc2ccc(F)cc2)c2ccc(F)cc2)c1,4.38
27,Cc1csc(NC(=O)C(Cl)c2ccccc2)n1.O=C(O)C(Cl)c1ccccc1 (stereo not drawn),9.4
